Assay results published in article PMC10514306, “The CBL1/9-CIPK1 calcium sensor negatively regulates drought stress by phosphorylating the PYLs ABA receptor” (Nature Communications, 2023).
No constants are given. Whether binding was seen depends on the method and setting. Binding seen in cells or lysates may run through a third protein. Some results given as binding are weak or reduced against the parent protein; the word gives no strength. Sequences can lack the tags named with a protein.

Sequences of proteins named here, by UniProt entry; tags and fusion partners are left off.
UniProt P05804: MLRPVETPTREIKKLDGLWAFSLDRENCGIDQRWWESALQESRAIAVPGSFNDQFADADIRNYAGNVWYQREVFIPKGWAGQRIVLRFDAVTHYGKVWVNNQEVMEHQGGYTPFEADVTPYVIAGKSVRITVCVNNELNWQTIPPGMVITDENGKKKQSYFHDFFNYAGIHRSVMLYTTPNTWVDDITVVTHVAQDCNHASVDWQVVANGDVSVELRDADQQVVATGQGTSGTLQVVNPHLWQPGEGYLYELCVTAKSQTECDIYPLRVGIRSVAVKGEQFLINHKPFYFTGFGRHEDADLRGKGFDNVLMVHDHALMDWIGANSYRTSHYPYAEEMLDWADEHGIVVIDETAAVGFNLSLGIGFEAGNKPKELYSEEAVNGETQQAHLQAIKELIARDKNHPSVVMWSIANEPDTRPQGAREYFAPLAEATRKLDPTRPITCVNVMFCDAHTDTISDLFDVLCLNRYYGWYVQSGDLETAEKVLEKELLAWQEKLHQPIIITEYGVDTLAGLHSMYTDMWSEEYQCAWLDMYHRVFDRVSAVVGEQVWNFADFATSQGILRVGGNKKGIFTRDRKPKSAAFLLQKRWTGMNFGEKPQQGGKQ
UniProt Q8VZS8: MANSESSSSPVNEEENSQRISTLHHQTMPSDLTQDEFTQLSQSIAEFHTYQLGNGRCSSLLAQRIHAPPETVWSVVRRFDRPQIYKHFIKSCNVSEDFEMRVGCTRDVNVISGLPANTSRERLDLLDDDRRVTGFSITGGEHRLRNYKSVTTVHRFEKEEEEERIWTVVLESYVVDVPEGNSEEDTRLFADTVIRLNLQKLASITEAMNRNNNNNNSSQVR
UniProt O49686: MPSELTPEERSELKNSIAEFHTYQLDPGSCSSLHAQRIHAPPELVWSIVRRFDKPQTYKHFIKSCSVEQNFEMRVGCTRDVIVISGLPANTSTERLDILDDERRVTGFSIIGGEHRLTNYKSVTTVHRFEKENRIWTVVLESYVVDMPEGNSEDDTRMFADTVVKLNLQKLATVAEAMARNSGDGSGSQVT

Assays:
Assay in all cases: split reporter; split-luciferase complementation (LCI): CIPK1-nLUC and PYR1/PYLs-cLUC co-injected into N. benthamiana leaves, signal read after 72 h with a CCD camera
[1] = target: T1, PYL11-cLUC (Arabidopsis) (UniProt Q9FJ50)
T1 sequence: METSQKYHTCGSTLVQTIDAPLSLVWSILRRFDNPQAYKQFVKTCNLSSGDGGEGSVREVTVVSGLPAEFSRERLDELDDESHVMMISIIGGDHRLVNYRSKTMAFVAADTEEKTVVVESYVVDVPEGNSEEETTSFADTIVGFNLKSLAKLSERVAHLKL

[2] = target: T2, PYL10-cLUC (Arabidopsis) (UniProt Q8H1R0)
T2 sequence: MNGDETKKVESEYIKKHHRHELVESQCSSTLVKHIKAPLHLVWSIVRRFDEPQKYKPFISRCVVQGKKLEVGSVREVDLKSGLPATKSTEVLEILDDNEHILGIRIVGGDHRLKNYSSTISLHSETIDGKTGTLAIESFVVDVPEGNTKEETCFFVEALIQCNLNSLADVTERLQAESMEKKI

[3] = target: GUS-cLUC (UniProt P05804)
[4] = target: PYL1-cLUC (Arabidopsis) (UniProt Q8VZS8)
[5] = target: T3, PYL9-cLUC (Arabidopsis) (UniProt Q84MC7)
T3 sequence: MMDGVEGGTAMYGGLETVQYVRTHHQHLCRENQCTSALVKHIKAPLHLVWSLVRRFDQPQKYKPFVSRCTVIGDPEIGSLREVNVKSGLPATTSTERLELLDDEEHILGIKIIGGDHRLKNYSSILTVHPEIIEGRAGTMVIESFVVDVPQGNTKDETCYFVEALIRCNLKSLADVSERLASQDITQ

[6] = target: T4, PYL4-cLUC (Arabidopsis) (UniProt O80920)
T4 sequence: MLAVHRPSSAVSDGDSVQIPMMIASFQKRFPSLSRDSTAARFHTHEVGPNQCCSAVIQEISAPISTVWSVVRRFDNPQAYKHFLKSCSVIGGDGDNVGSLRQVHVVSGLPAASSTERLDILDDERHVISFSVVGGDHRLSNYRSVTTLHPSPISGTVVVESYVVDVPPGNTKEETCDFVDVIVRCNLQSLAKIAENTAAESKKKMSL

[7] = target: PYR1-cLUC (Arabidopsis) (UniProt O49686)

binding [1]: no binding | binding [2]: no binding | binding [3]: no binding | binding [4]: binds | binding [5]: no binding | binding [6]: binds | binding [7]: binds
B1: CIPK1-nLUC (enzyme, UniProt Q8RWC9 1-444)
chain: MVRRQEEEKKAEKGMRLGKYELGRTLGEGNFGKVKFAKDTVSGHSFAVKIIDKSRIADLNFSLQIKREIRTLKMLKHPHIVRLHEVLASKTKINMVMELVTGGELFDRIVSNGKLTETDGRKMFQQLIDGISYCHSKGVFHRDLKLENVLLDAKGHIKITDFGLSALPQHFRDDGLLHTTCGSPNYVAPEVLANRGYDGAASDIWSCGVILYVILTGCLPFDDRNLAVLYQKICKGDPPIPRWLSPGARTMIKRMLDPNPVTRITVVGIKASEWFKLEYIPSIPDDDDEEEVDTDDDAFSIQELGSEEGKGSDSPTIINAFQLIGMSSFLDLSGFFEQENVSERRIRFTSNSSAKDLLEKIETAVTEMGFSVQKKHAKLRVKQEERNQKGQVGLSVTAEVFEIKPSLNVVELRKSYGDSCLYRQLYERLLKDVGTSSPEQEIVT
